In the supplement of paper PMC10126150:
Sequences with one replicate were seen in a single cluster, so their values are uncertain.
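Also: ATP exposure 15 min at 22 °C before imaging.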

The sequences below were run on ATP (assay: switch fluorescence ratio, 500 uM ATP over buffer (Cy3 cluster intensity, sum of 5 cycles each) (fold (ratio)); higher = stronger signal-on switching upon ATP binding; sequences stand for … in TCGTCGGCAGCGTCAGATGTGTATAAGAGACAGTTTTTTTTTTTTTTTTTTTTTTTTT…TC). Settings: aptamer strand: ATP DNA aptamer (quencher-CACCTGGGGGAGTATTGCGGAGGAAGG + anchor), 100 nM annealed; ATP concentration: 500 uM; one replicate.
Method in brief: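 Imaging in selection buffer was followed by imaging after 15 min with 500 uM ATP at 22 °C, for Cy3-labelled switching-strand clusters annealed to 100 nM quencher-labelled ATP aptamer on a modified Illumina MiSeq flow-cell. Five of these buffer/ATP cycles ran, separated by NaOH stripping and re-annealing. The fluorescence ratio per cluster is summed target-cycle over summed buffer-cycle Cy3 intensity, averaged per switch-domain sequence; clusters outside 100-1000 RFU were removed.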
In the case of TCTTCAATCA, the switch fluorescence ratio is reported as 1.02.
With CCCAAAAGCT the switch fluorescence ratio was 1.05.
For CTTCGCGATA, the switch fluorescence ratio was 1.07.
In the case of CGAATGGCAG, the switch fluorescence ratio is reported as 0.999.
For CATTATACGG, the switch fluorescence ratio was 1.04.
For GCAGACCCAG, the switch fluorescence ratio was 0.984.
With ACTGCAC the switch fluorescence ratio was 1.63.
With TTACGCAGGT the switch fluorescence ratio was 0.977.
CAATTCGATT gave a switch fluorescence ratio of 0.984.
CCCGGTCTTA was tested, and the switch fluorescence ratio was 1.
ATAGCCCCAA was tested, and the switch fluorescence ratio was 1.07.
In the case of TATCTGAGTT, the switch fluorescence ratio is reported as 1.03.
GCGTTAATAT showed a switch fluorescence ratio of 1.06.
With ATATTTAGG the switch fluorescence ratio was 0.975.
With CGTAATGCGG the switch fluorescence ratio was 1.05.
CTGGTCGCAA showed a switch fluorescence ratio of 1.64.
For ATCAGGTGGC, the switch fluorescence ratio was 1.36.
Sequence ATCTTGGTCG has a switch fluorescence ratio of 1.
GTAGGGTTGT showed a switch fluorescence ratio of 0.987.
Work on TTCTGTTTG yielded a switch fluorescence ratio of 0.996.
GCTTGACTAT showed a switch fluorescence ratio of 1.03.
In the case of GAAATGCGCT, the switch fluorescence ratio is reported as 0.996.
With TCAACGAGTC the switch fluorescence ratio was 1.06.
GTAGTACGGG gave a switch fluorescence ratio of 1.04.
CATAATAGCG showed a switch fluorescence ratio of 1.03.
CGTCTTGTTT gave a switch fluorescence ratio of 0.991.
Work on TCATGCGCGT yielded a switch fluorescence ratio of 1.05.
With GTTGGAAAAC the switch fluorescence ratio was 1.02.
Work on GGTTCACAGC yielded a switch fluorescence ratio of 0.943.
For TAGAGTCAAT, the switch fluorescence ratio was 1.05.
CGTAGACTGA gave a switch fluorescence ratio of 0.986.
GCCTTATAT showed a switch fluorescence ratio of 0.995.
In the case of AGTACAGGAT, the switch fluorescence ratio is reported as 1.01.
With TTAGTCACGA the switch fluorescence ratio was 0.972.
GATCTTCAGT was tested, and the switch fluorescence ratio was 0.986.
With GCGCACAGGG the switch fluorescence ratio was 1.17.
With ATGAAATAAT the switch fluorescence ratio was 1.02.
In the case of GAGATTAAGT, the switch fluorescence ratio is reported as 1.
With CATTGCTAAG the switch fluorescence ratio was 1.04.
In the case of AAACCCACTC, the switch fluorescence ratio is reported as 1.29.
TTCGGAGTAT was tested, and the switch fluorescence ratio was 1.01.
Sequence AGAAAATGGA has a switch fluorescence ratio of 1.02.
GAGGGCCACC gave a switch fluorescence ratio of 1.1.
Sequence CAAAATGGAG has a switch fluorescence ratio of 0.968.
Sequence CTGTGCATAG has a switch fluorescence ratio of 1.31.
AAAGAAATAA gave a switch fluorescence ratio of 0.984.
For AGTACTTCGC, the switch fluorescence ratio was 1.12.
GTCGCCGGTC gave a switch fluorescence ratio of 0.965.
With TTCTTCCGAC the switch fluorescence ratio was 4.39.
For GACAAGGTGG, the switch fluorescence ratio was 1.03.
GTTTTATTTC gave a switch fluorescence ratio of 0.978.
For CTGGATGGTC, the switch fluorescence ratio was 1.05.
Work on ATCAAATAGG yielded a switch fluorescence ratio of 0.981.
GTAAGACAAG was tested, and the switch fluorescence ratio was 1.01.
GGTCATTAGG was tested, and the switch fluorescence ratio was 0.989.
CTTTAAAG showed a switch fluorescence ratio of 0.99.
In the case of TCTAGAAAGA, the switch fluorescence ratio is reported as 0.978.
In the case of ACCCGTGTCA, the switch fluorescence ratio is reported as 0.974.
Sequence GTTAGTGTCG has a switch fluorescence ratio of 0.928.
GCTATTGGTC showed a switch fluorescence ratio of 0.978.
For TAACATGAAC, the switch fluorescence ratio was 1.09.
AAGGGGCTG gave a switch fluorescence ratio of 1.01.
Sequence CTGGACAGCT has a switch fluorescence ratio of 1.01.
TTTCACCAGG gave a switch fluorescence ratio of 2.99.
Sequence CGCCCGTATT has a switch fluorescence ratio of 1.02.
GAAAAGCGAT showed a switch fluorescence ratio of 1.01.
With TTTATTGTCT the switch fluorescence ratio was 1.04.
With ATGCTAGGTC the switch fluorescence ratio was 0.962.
With GACTGGAGCG the switch fluorescence ratio was 0.997.
For GAACGAAGTA, the switch fluorescence ratio was 0.971.
In the case of CCGGATAGAT, the switch fluorescence ratio is reported as 1.01.
ATTTTGGGT gave a switch fluorescence ratio of 1.01.
Sequence TTACGTCCCA has a switch fluorescence ratio of 0.995.
For GGTACGTGGT, the switch fluorescence ratio was 0.994.
ATAGTCTATC gave a switch fluorescence ratio of 0.965.
GCAGTGCCCA gave a switch fluorescence ratio of 1.01.
GGACTGCGCG was tested, and the switch fluorescence ratio was 1.05.
Sequence TACACACTTA has a switch fluorescence ratio of 1.3.
With CCATCGAGTA the switch fluorescence ratio was 1.02.
Sequence GCCGGAGGCC has a switch fluorescence ratio of 1.04.
CCCAGGGTT gave a switch fluorescence ratio of 1.89.
GGGTTCCTAA showed a switch fluorescence ratio of 1.04.
Work on CGGTAATCC yielded a switch fluorescence ratio of 1.08.
Sequence AGCTACGTAG has a switch fluorescence ratio of 0.998.
For TTCGCTATTT, the switch fluorescence ratio was 1.04.
In the case of GTGATACGTG, the switch fluorescence ratio is reported as 0.978.
Sequence GTTCCCCGCG has a switch fluorescence ratio of 4.33.
Sequence GCGAGCTACT has a switch fluorescence ratio of 1.06.
With AAAGTCTAGG the switch fluorescence ratio was 0.989.
TACCGCTGGT was tested, and the switch fluorescence ratio was 1.05.
For GCATGTTTAG, the switch fluorescence ratio was 0.953.
With GCTGAGTGAC the switch fluorescence ratio was 0.957.
CGCATGACGA gave a switch fluorescence ratio of 1.24.
GATGACTTGG was tested, and the switch fluorescence ratio was 0.998.
AGGCGAGTTC was tested, and the switch fluorescence ratio was 0.968.
In the case of CACACGACGG, the switch fluorescence ratio is reported as 1.23.
TTTTCAGGCA gave a switch fluorescence ratio of 1.01.
In the case of AATTTAACC, the switch fluorescence ratio is reported as 1.04.
For GATTGATGCC, the switch fluorescence ratio was 1.04.
With TCTGGATTAG the switch fluorescence ratio was 0.985.
Work on AGTTGTATCC yielded a switch fluorescence ratio of 0.977.
With TAACCTGGTG the switch fluorescence ratio was 1.69.
Sequence CTTTCCAAAC has a switch fluorescence ratio of 1.41.
For GGGTACCGAT, the switch fluorescence ratio was 1.03.
CCTATGCAAG gave a switch fluorescence ratio of 4.74.
TATTCTTTCG showed a switch fluorescence ratio of 0.993.
AGGCCGGCGA was tested, and the switch fluorescence ratio was 1.03.
In the case of CACGTACATC, the switch fluorescence ratio is reported as 1.6.
TCGAGATAAC was tested, and the switch fluorescence ratio was 1.02.
Sequence AGTTGGACA has a switch fluorescence ratio of 0.983.
CGGTACGACA showed a switch fluorescence ratio of 0.998.
In the case of TCTGCTTAG, the switch fluorescence ratio is reported as 0.972.
GCCCCTATGT gave a switch fluorescence ratio of 1.
Work on AAGAGAGGAT yielded a switch fluorescence ratio of 1.02.
TGCCACCATT was tested, and the switch fluorescence ratio was 0.972.
Sequence TGATCTTCG has a switch fluorescence ratio of 1.02.
For ATGTTGCGTT, the switch fluorescence ratio was 0.977.
Work on TCCTTAAAGT yielded a switch fluorescence ratio of 1.01.
In the case of AACGCTATT, the switch fluorescence ratio is reported as 1.17.
GGGCGCCGAG was tested, and the switch fluorescence ratio was 0.979.
Work on GAAAACGGG yielded a switch fluorescence ratio of 1.04.
For AACCGAATTG, the switch fluorescence ratio was 0.999.
For GAATTTGGCG, the switch fluorescence ratio was 1.01.
With AAGTGTTGGT the switch fluorescence ratio was 0.925.
For GTTCGTCCGG, the switch fluorescence ratio was 1.05.
With CTAGTCGTTG the switch fluorescence ratio was 1.05.
Sequence TCTATCGCCA has a switch fluorescence ratio of 1.11.
For TGATATAAGT, the switch fluorescence ratio was 1.04.
For CGCGGCGCCC, the switch fluorescence ratio was 0.989.
Work on ATGCCGTCGG yielded a switch fluorescence ratio of 0.972.
AAACTCATG was tested, and the switch fluorescence ratio was 0.966.
For GACACGGCGT, the switch fluorescence ratio was 1.05.
Sequence CGGGATGGGA has a switch fluorescence ratio of 1.03.
In the case of TTTTTGTC, the switch fluorescence ratio is reported as 1.03.
With GCGCCCGTCA the switch fluorescence ratio was 1.04.
Work on AGAGGGACAG yielded a switch fluorescence ratio of 0.982.
Sequence GCTATGGCTC has a switch fluorescence ratio of 0.963.
AACTTTGGCA showed a switch fluorescence ratio of 0.984.
For TTACCCGTCG, the switch fluorescence ratio was 0.966.
CTATATAAAG showed a switch fluorescence ratio of 0.989.
In the case of TTCAGAGATC, the switch fluorescence ratio is reported as 0.939.
Work on GACTTTCGCC yielded a switch fluorescence ratio of 1.14.
In the case of GTTGCTAATC, the switch fluorescence ratio is reported as 1.05.
GCGATCATCC was tested, and the switch fluorescence ratio was 1.21.
Sequence GGGCTACGGC has a switch fluorescence ratio of 1.05.
For TCGAGGCATG, the switch fluorescence ratio was 1.33.
Work on CTGGGTTATG yielded a switch fluorescence ratio of 1.01.
With ATGTCTCTGA the switch fluorescence ratio was 1.01.
With TTCATGTGGT the switch fluorescence ratio was 0.993.
Work on GCGTACTCAT yielded a switch fluorescence ratio of 1.03.
With CCTATGTTTT the switch fluorescence ratio was 1.02.
Sequence CAAAGGTAGC has a switch fluorescence ratio of 0.96.
Sequence GGGTTGGAGA has a switch fluorescence ratio of 0.996.
TAGACTTTAC gave a switch fluorescence ratio of 1.24.
For CGCCCTTTCA, the switch fluorescence ratio was 1.04.
In the case of ATAACTCGAC, the switch fluorescence ratio is reported as 1.01.
With TAGGCGCCTG the switch fluorescence ratio was 0.988.
